# Test results: the supplement of paper PMC4604168 (melanoma cell lines)
# Some of the results follow. Most values come without repeats; read them as rough.
# Key:
# Assay in all cases: cell count relative to DMSO control; melanoma cells; higher = more viable cells
# Conditions in all cases: library dose: low library concentration; 72 h
# [1] = test system: MZ2-MEL
# [2] = test system: MeWo
# [3] = test system: RPMI7951
# [4] = test system: RVH-421
# [5] = test system: SkMel28
# [6] = test system: SkMel2
# [7] = test system: SkMel30
# [8] = test system: SkMel5
# [9] = test system: UACC257
# [10] = test system: UACC62
# 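Further: cell number obtained by counting DAPI-stained nuclei in high-throughput microscope images with image analysis software, screen run in 1,536-well plates.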
SMILES,cell count [1] [%],cell count [2] [%],cell count [3] [%],cell count [4] [%],cell count [5] [%],cell count [6] [%],cell count [7] [%],cell count [8] [%],cell count [9] [%],cell count [10] [%]
"Cn1cc(C2=C(c3cn(C4CCN(Cc5ccccn5)CC4)c4ccccc34)C(=O)NC2=O)c2ccccc21 [Enzastaurin] + Oc1nc(-c2ccc(C(F)(F)F)cc2)nc2c1CSCC2 [XAV939] (first compound 0.8 µM, partner dose 2 µM)",90.8,100,90.6,132,86.4,111,81.2,86,86.8,82.1
"Cn1cc(C2=C(c3cn(C4CCN(Cc5ccccn5)CC4)c4ccccc34)C(=O)NC2=O)c2ccccc21 [Enzastaurin] + COc1ccc(-c2ccc3c(N4CCOCC4)nc(N4C[C@@H](C)O[C@@H](C)C4)nc3n2)cc1CO [KU0063794] (first compound 0.8 µM, partner dose 0.02 µM)",94.2,102,101,80,106,96,122,99.9,86.2,92.8
"Cn1cc(C2=C(c3cn(C4CCN(Cc5ccccn5)CC4)c4ccccc34)C(=O)NC2=O)c2ccccc21 [Enzastaurin] + OCCn1cc(-c2cnc3nnn(Cc4ccc5ncccc5c4)c3n2)cn1 [PF04217903] (first compound 0.8 µM, partner dose 1 µM)",92.8,108,91.4,77.6,99.7,99.1,114,93.9,100,108
"N.N.[Cl][Pt][Cl] [cisplatin] + NC(=O)Nc1cc(-c2cccc(F)c2)sc1C(=O)N[C@H]1CCCNC1 [AZD7762] (first compound 1.6 µM, partner dose 0.02 µM)",108,99.8,94.3,115,104,111,110,111,120,85.5
"N.N.[Cl][Pt][Cl] [cisplatin] + Cn1cncc1[C@@](N)(c1ccc(Cl)cc1)c1ccc2c(c1)c(-c1cccc(Cl)c1)cc(=O)n2C [tipifarnib] (first compound 1.6 µM, partner dose 0.01 µM)",112,96.9,99.8,69.8,104,90.9,104,94.1,84.1,86.5
"Cn1cc(C2=C(c3cn(C4CCN(Cc5ccccn5)CC4)c4ccccc34)C(=O)NC2=O)c2ccccc21 [Enzastaurin] + CC(C)CCN1c2nc(Nc3cc(F)c(O)c(F)c3)ncc2N(C)C(=O)C1C [BID1870] (first compound 0.8 µM, partner dose 0.2 µM)",95.4,109,95,79.3,109,99.4,96,97.8,95.5,89.6
"Cn1cc(C2=C(c3cn(C4CCN(Cc5ccccn5)CC4)c4ccccc34)C(=O)NC2=O)c2ccccc21 [Enzastaurin] + N#Cc1c(O)c2c(-c3ccc(-c4ccccc4O)cc3)csc2[nH]c1=O [A769662] (first compound 0.8 µM, partner dose 2 µM)",94.7,123,99.3,79.9,96.5,122,110,111,88.8,113
"N.N.[Cl][Pt][Cl] [cisplatin] + COc1cc(Nc2ncc(F)c(Nc3ccc4c(n3)NC(=O)C(C)(C)O4)n2)cc(OC)c1OC [Tamatinib] (first compound 1.6 µM, partner dose 0.4 µM)",94.3,95.5,92.1,60.2,74.7,98.4,82.4,85.5,82.9,86.2
"N.N.[Cl][Pt][Cl] [cisplatin] + Cn1cc(/C=C2\C(=O)Nc3cccnc32)c2ccccc21 [GW441756] (first compound 1.6 µM, partner dose 0.4 µM)",91.9,78.7,93,97.6,88.5,97.8,95.7,82.6,94,74.9
"Cn1cc(C2=C(c3cn(C4CCN(Cc5ccccn5)CC4)c4ccccc34)C(=O)NC2=O)c2ccccc21 [Enzastaurin] + C[C@@H]1CCN(C(=O)CC#N)C[C@@H]1N(C)c1ncnc2[nH]ccc12 [CP690550] (first compound 0.8 µM, partner dose 1 µM)",103,116,126,78.8,99.4,97.5,113,97.9,88,99.7
"C[As](C)SC[C@H](NC(=O)CC[C@H](N)C(=O)O)C(=O)NCC(=O)O [Darinaparsin] + CN(C)S(=O)(=O)c1ccc2c(c1)/C(=C/c1cc3c([nH]1)CCCC3)C(=O)N2 [SU6656] (first compound 0.4 µM, partner dose 0.4 µM)",109,91,119,87.8,99.1,108,93.8,96,83.4,99.1
